Measured values as given in PubChem BioAssay (NCATS).
The inconclusive results got no clear call from the source; some entries with a clear call stand among them for comparison. Potencies of inconclusive entries are doubtful fits and often do not repeat. Activity calls are given as the source filed them. Calls follow the shape of the dose curve; as a rule, active = well fitted cell-killing curve with a large enough effect; inconclusive = small, poorly fitted or top-dose-only effect, or effect the other way; inactive = no such curve, though single readings can be large or run the other way.

Columns and labels:
[1] = Viability qHTS for spleen associated tyrosine kinase inhibitor (SYKi) naive MV4-11 cells (AID 1963823); details: MV4-11 AML viability, CellTiter-Glo luminescence, 72 h; series mostly up to 45 µM; also: nearly all actives have a fitted effect of over 40% in size
How it was run: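 qHTS, SYK inhibitor-naive MV4-11; 500 cells/well; 72 hr compound exposure, 37 C; CellTiter-Glo added, 10 min RT; luminescence read.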

[2] = Viability qHTS for spleen associated tyrosine kinase inhibitor (SYKi) drug resistant MV4-11 cells (AID 1963824); also: nearly all actives have a fitted effect of over 35% in size
How it was run: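 SYK-inhibitor-resistant MV4-11 AML cells were seeded at 500 per well onto compound and cultured 72 hours (37 °C, 5% CO2). CellTiter-Glo was then added, and after 10 min at room temperature, luminescence gave viability.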
Potency is read from the fitted curve at half-maximal effect; tags tell the direction and shape of the fitted curve.

Row | Structure (SMILES) | Potency [1] | Potency [2]
1 | CC(C)c1ccc2c(c1)C(O)CC1C(C)(CO)CCCC21C (centres undefined) | inconclusive: 16.4 µM [cytotoxic, single point] | inconclusive: 20.6 µM [cytotoxic, partial curve]
2 | C[C@@H]1O[C@@H](O[C@@H]2[C@@H](O)[C@H](O[C@@H]3[C@@H](O)[C@@H](O)[C@H](O[C@H]4[C@H](OC(=O)[C@]56CCC(C)(C)C[C@H]5C5=CCC7[C@@]8(C)C[C@H](O)[C@H](O[C@@H]9O[C@@H](C)[C@H](O)[C@@H](O)[C@H]9O)[C@@](C)(CO)C8CC[C@@]7(C)[C@]5(C)C[C@H]6O)O[C@H](C)[C@H](O)[C@@H]4O)O[C@H]3C)OC[C@H]2O)[C@H](O)[C@H](O)[C@H]1O (some centres undefined) | inconclusive: 2.45 µM [cytotoxic, single point] | inconclusive: 6.16 µM [cytotoxic, single point]
3 | C/C1=C\CCC2=C[C@@H](OC2=O)c2c(C)coc2C1 | inconclusive: 14.6 µM [cytotoxic, partial curve] | inconclusive: 18.4 µM [cytotoxic, single point]
4 | COC1=CC(=O)O[C@@H](CCc2ccccc2)[C@@H]1O | inactive | inactive
5 | O=S1(=O)CCN(Cc2cc(NCC3CCOCC3)c3[nH]c(-c4ccccc4)cc3c2)CC1 | inactive | inconclusive: 0.259 µM [cytotoxic, full curve, poor fit]
6 | N#C/C(=C\c1ccc(O)c(O)c1)C(=O)NCCCNC(=O)/C(C#N)=C/c1ccc(O)c(O)c1 | inconclusive: 16.4 µM [cytotoxic, partial curve] | inconclusive: 20.6 µM [cytotoxic, single point]
7 | CCC(O)(C(=O)OCc1ccccc1NC(=O)CCC(=O)O)C(C)O (centres undefined) | inconclusive: 0.0286 µM [cytotoxic, single point] | inactive
8 | Oc1ccc(Cl)c2cccnc12 | inactive | inactive
9 | CC(CO)C1CCC2(C)CC3C(CO)CC(O)C3C(C)(O)C/C=C/12 (centres undefined) | inactive | inactive
10 | CN(C)c1ccc(NC(=O)NS(=O)(=O)c2ccc(Cl)cc2)cc1 | inconclusive: 10.3 µM [cytotoxic, partial curve] | inconclusive: 16.4 µM [cytotoxic, partial curve]
11 | O=C1CCCC2=C1C(c1ccccc1Br)N=C(Nc1nc3ccccc3o1)N2 (centres undefined) | inconclusive: 10.3 µM [cytotoxic, partial curve] | inconclusive: 0.651 µM [cytotoxic, full curve]
12 | C[C@]12C=CC(=O)C=C1CC[C@@H]1[C@@H]2[C@@H](O)C[C@@]2(C)[C@H]1CC[C@]2(O)C(=O)COC(=O)CCC(=O)O | inconclusive: 0.0517 µM [rising, full curve, poor fit] | inactive
13 | Cc1csc(NC(=O)c2ccc(COc3cccc(Cl)c3)o2)n1 | inconclusive: 20.6 µM [cytotoxic, single point] | inconclusive: 14.6 µM [cytotoxic, partial curve]
14 | Oc1ccc(CC2NCCc3cc(O)c(O)cc32)cc1 (centres undefined) | inconclusive: 20.6 µM [cytotoxic, partial curve] | inconclusive: 18.4 µM [cytotoxic, partial curve]
15 | O=C(O)Cn1c(=O)n(Cc2ccc(Br)cc2F)c(=O)c2ccc(Cl)cc21 | inconclusive: 2.99 µM [cytotoxic, partial curve, poor fit] | inconclusive: 21.1 µM [cytotoxic, partial curve, poor fit]
16 | CN1C(=O)c2ccccc2NC(=O)[C@]12O[C@@H]2c1cccc(O)c1 | inactive | inactive
17 | C/C=C/C=C/C(O)=C1\C(=O)[C@]2(C)C3C(C(=O)CC/C=C/C)=C(O)C4(C)C1[C@]1(C)O[C@@]4(O)[C@@]3(C)O[C@@]12O | inconclusive: 7.96 µM [cytotoxic, single point] | inconclusive: 7.96 µM [cytotoxic, partial curve]
18 | CO[C@H]1C[C@@H]2CC[C@@H](C)[C@@](O)(O2)C(=O)C(=O)N2CCCC[C@H]2C(=O)O[C@H]([C@H](C)C[C@@H]2CC[C@H](n3cnnn3)[C@H](OC)C2)CC(=O)[C@H](C)/C=C(\C)[C@@H](O)[C@@H](OC)C(=O)[C@H](C)C[C@H](C)/C=C/C=C/C=C/1C | inconclusive: 10 µM [cytotoxic, partial curve, poor fit] | inconclusive: 11.2 µM [cytotoxic, partial curve]
19 | C=C1C2CCC3C(CCC4[C@@]3(C)CCC[C@@]4(C)C(=O)O)(C2)[C@@H]1OC(=O)/C(C)=C\C (some centres undefined) | inconclusive: 14.2 µM [rising, single point] | inconclusive: 14.2 µM [rising, single point]
20 | COc1cc(C)c(C(=O)O[C@H]2[C@@H](O)[C@H](n3ccc(=O)[nH]c3=O)O[C@@H]2CO)c(OC)c1 | inactive | inactive
21 | O=C(O)c1cc(-c2c(-c3ccccc3)nn3ccccc23)n[nH]c1=O | inactive | inconclusive: 10.3 µM [cytotoxic, partial curve, poor fit]

Row | Structure (SMILES) | Potency [1] | Potency [2]
22 | C=CC[C@]12C[C@@H](OC)C(=O)C(OC)=C1O[C@@H](c1cc(OC)c3c(c1)OCO3)[C@@H]2C | inconclusive: 7.96 µM [cytotoxic, partial curve] | inconclusive: 15.9 µM [cytotoxic, single point]
23 | CC1CCC2C(C(=O)O)=CC3(O)CC(C)(C)CC123 (centres undefined) | inactive | inactive
24 | O=C(O)CC1CCC(c2ccc(-c3ccc(Nc4ccc(C(F)(F)F)nc4)cn3)cc2)CC1 (centres undefined) | inconclusive: 14.6 µM [cytotoxic, partial curve] | active: 18.6 µM
25 | CC(C)C(NC(=O)c1ccc2ccccc2n1)C(=O)NC(CC(=O)O)C(=O)COc1c(F)cccc1F (centres undefined) | inactive | inconclusive: 3.26 µM [cytotoxic, full curve]
26 | CC(C)C(N)C(=O)OCC(CO)OCn1cnc2c(=O)[nH]c(N)nc21 (centres undefined) | inconclusive: 4.11 µM [cytotoxic, single point] | inconclusive: 4.11 µM [cytotoxic, single point]
27 | C=CCOc1cc(Cl)ccc1C(=O)NCCN(CC)CC | inconclusive: 0.0013 µM [rising, full curve, poor fit] | inconclusive: 0.0017 µM [rising, full curve]
28 | O=C(Nc1ccccc1)Nc1ccc(-c2ccc(C(=O)C3CCCC3C(=O)O)cc2)cc1 (centres undefined) | inconclusive: 20.6 µM [cytotoxic, single point] | inconclusive: 18.4 µM [cytotoxic, single point]
29 | CC(CCc1ccc(O)cc1)O[C@@H]1O[C@H](CO[C@@H]2OC(CO)[C@H](O)[C@H]2O)[C@@H](O)[C@H](O)[C@H]1O (some centres undefined) | inactive | inactive
30 | FC(F)(F)c1cc(-c2ncn(/C=C\c3nnco3)n2)cc(C(F)(F)F)c1 | inconclusive: 0.517 µM [cytotoxic, full curve] | inconclusive: 0.92 µM [cytotoxic, full curve]
31 | COc1ccc(C(=O)Nc2sc3c(c2C(N)=O)CCCC3)cc1OC | inconclusive: 0.731 µM [cytotoxic, full curve] | inconclusive: 1.64 µM [cytotoxic, full curve]
32 | CCOC(=O)C(CCc1ccccc1)NC(C)C(=O)N1Cc2ccccc2CC1C(=O)O (centres undefined) | inconclusive: 11.6 µM [cytotoxic, partial curve, poor fit] | inconclusive: 11.6 µM [cytotoxic, partial curve, poor fit]
33 | COc1cc(C(=O)OCC2=CCC3C(C(=O)O)=COC(O[C@@H]4O[C@H](CO)[C@@H](O)[C@H](O)[C@H]4O)C23)ccc1O (some centres undefined) | inactive | inactive
34 | COC1(CC(C)C)NC(=O)C(O)(Cc2ccccc2)NC1=O (centres undefined) | inconclusive: 1.01 µM [cytotoxic, partial curve, poor fit] | inconclusive: 8.05 µM [cytotoxic, partial curve, poor fit]
35 | COc1c(Nc2ncc(Cl)c(N[C@H]3[C@@H](C(N)=O)[C@@H]4C=C[C@H]3C4)n2)ccc2c1CC[C@@H](N1CCOCC1)CC2 | active: 0.231 µM | active: 0.291 µM
36 | C/C=C/C1=CC2=CC(=O)C(C)(O)C(OC(=O)c3c(C)cc(O)cc3O)C2CO1 (centres undefined) | inconclusive: 12.8 µM [cytotoxic, partial curve] | inconclusive: 14.3 µM [cytotoxic, partial curve]
37 | N[C@@H](Cc1cc(I)c(O)c(I)c1)C(=O)O | inconclusive: 13.3 µM [cytotoxic, partial curve] | inconclusive: 18.8 µM [cytotoxic, single point]
38 | COc1cc(-c2nc(N[C@H](CO)Cc3ccccc3)ccc2C(=O)NCCOc2ccccc2)cc(OC)c1OC | inconclusive: 23.1 µM [cytotoxic, single point] | active: 25.9 µM
39 | C/C=C(/COC(=O)/C(C)=C/C)C(=O)OC(CC)c1ccc(OC)c(OC)c1 (centres undefined) | inactive | inactive
40 | CC(N)C(=O)OC(C)(C)Cc1ccc(Cl)cc1 (centres undefined) | inactive | inconclusive: 18.8 µM [cytotoxic, single point]
41 | CC1(C)OC[C@H](NC(=O)Nc2ccc(Br)cc2Br)[C@H](c2ccccc2)O1 | inconclusive: 14.6 µM [cytotoxic, partial curve] | inconclusive: 18.4 µM [cytotoxic, partial curve]
42 | Cc1cc2ncc(C(=O)NCC(C)(C)NCC(=O)N3CCC[C@H]3C#N)cn2n1 | inactive | inactive
